# From PMC6919601, “Identification of Plasmodium dipeptidyl aminopeptidase allosteric inhibitors by high throughput screening” (PLoS ONE, 2019)
# In all, about 110,000 compounds went through this assay and about 230 (0.21%) showed an effect of 50% or more. This is one part of the list.
# Target: DPAP1 (Plasmodium falciparum, UniProt Q8IIJ9)
# Test: primary screen, percent inhibition; read by cleavage of a fluorogenic dipeptide substrate; higher = more effect of the substance
# Set-up: species or system P. falciparum D10 trophozoite lysates; single well
# 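Also: 30 min substrate incubation versus DMSO and 10 µM JCP410 controls.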
# Sequence of DPAP1 (Q8IIJ9 whole entry, looked up): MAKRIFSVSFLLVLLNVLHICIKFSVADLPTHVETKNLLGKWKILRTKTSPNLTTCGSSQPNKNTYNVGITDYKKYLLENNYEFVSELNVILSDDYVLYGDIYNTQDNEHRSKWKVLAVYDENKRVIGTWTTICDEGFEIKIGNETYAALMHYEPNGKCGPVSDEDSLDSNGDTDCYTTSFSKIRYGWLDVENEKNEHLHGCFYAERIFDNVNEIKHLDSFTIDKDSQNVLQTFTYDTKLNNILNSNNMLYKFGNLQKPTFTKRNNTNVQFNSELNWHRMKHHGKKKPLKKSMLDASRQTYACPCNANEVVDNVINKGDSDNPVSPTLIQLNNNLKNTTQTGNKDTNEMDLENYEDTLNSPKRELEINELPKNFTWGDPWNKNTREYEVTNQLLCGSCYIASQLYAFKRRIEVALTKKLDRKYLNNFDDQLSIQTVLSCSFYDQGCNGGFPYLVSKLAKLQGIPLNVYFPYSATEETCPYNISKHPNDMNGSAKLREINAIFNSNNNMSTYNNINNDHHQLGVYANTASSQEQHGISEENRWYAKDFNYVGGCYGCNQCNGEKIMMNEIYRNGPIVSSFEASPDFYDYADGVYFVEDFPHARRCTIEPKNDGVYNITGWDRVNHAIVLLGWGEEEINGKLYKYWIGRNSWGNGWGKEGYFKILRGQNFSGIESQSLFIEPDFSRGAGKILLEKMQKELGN
row,Structure (SMILES),% Inhibition @ 10 uM
1,CNC(=O)/C(=C\c1ccccc1)NC(=O)c1ccccc1Br,-0.759%
2,O=C(O)c1ccc2[nH]c3c(c2c1)CSCC3,-4.3%
3,COc1ccc(N2C(=O)C(Cl)=C(NCc3ccccc3)C2=O)cc1,-1.37%
4,COc1ccc(/C=C(\NC(=O)c2ccccc2)C(=O)NCCCn2ccnc2)cc1,4.95%
5,COc1cc2c(cc1OC)C1=NNC(=O)C1=NC(C)(C)C2,3.04%
6,CCOC(=O)C1=C(CN2CCn3cccc3C2C)NC(=O)NC1c1cccc(OC)c1OC (stereo not drawn),0.44%
7,CCCOc1ccc(C(=O)ON=C2CCN(C)CC2)cc1,-0.615%
8,CCN(CC)C1=NC=CC(c2ccccc2)=CC1SC (stereo not drawn),-4.06%
9,Cn1nc(C(=O)n2ccnc2)c2c1-c1ccccc1SC2,-1.72%
10,FC(F)(F)c1cccc(N2CCN(Cc3c[nH]c4ccccc34)CC2)c1,-5.65%
11,COc1ccccc1Nc1nc2ccccc2n1C,1.92%
12,Cc1ccc(C2(c3ccc(C)cc3)CC2C(=O)Nc2nccs2)cc1 (stereo not drawn),-1.91%
13,COc1cc(CN2CCNCC2CCO)cc(OC)c1 (stereo not drawn),-4.78%
14,COc1ccc(-c2noc(CNS(=O)(=O)c3ccc(C)cc3)n2)cc1,2.14%
15,O=C(COc1ccccc1)Nc1ccccc1C(=O)Nc1ccccc1,-0.795%
16,Cc1ccccc1OCC(=O)Nc1ccc(S(=O)(=O)N2CCCC2)cc1,0.755%
17,CC1=C(C(=O)Nc2ccc(Br)cn2)C(c2ccc(F)cc2)C2=C(O)CC(C)(C)CC2=N1 (stereo not drawn),-5.79%
18,Cc1cccc(Cc2c(C)nc3nc(SCC(=O)NCc4ccc5c(c4)OCO5)nn3c2C)c1,0.813%
19,O=C(O)CCC(=O)N1N=C(c2cccs2)CC1c1cccs1 (stereo not drawn),3.35%
20,CCN1CCC(NCCc2ccccc2F)CC1,-3.6%
21,COc1ccc(-c2noc(CN3CCCC(C(=O)NCc4ccco4)C3)n2)cc1OC (stereo not drawn),-2.71%

row,Structure (SMILES),% Inhibition @ 10 uM
1,COc1ccc(/C=N/N=C(\N)c2nonc2N)c(OC)c1,0.146%
2,Cc1ccc(C(=O)Nc2ccc(S(=O)(=O)N3CCOCC3)cc2)cc1S(=O)(=O)N1CCCC1,4.75%
3,Cn1c(=O)c2c(nc(CN3CCC(Cc4ccccc4)CC3)n2Cc2ccc(F)cc2)n(C)c1=O,1.23%
4,Cc1cccc(C(=O)NC2CCN(Cc3ccccc3)CC2)c1,3.66%
5,CCCC(/C(=N\O)c1ccccc1)n1cncn1 (stereo not drawn),0.986%
6,NC(=O)C1CCN(C(=O)c2ccc(C#Cc3ccccc3)cc2)CC1,-1.32%
7,CCOc1ccc(NC2=NC(=O)C(CC(=O)Nc3ccccc3F)S2)cc1 (stereo not drawn),-2.32%
8,O=C1Nc2ccccc2C(O)(C(=O)NCc2ccco2)N1c1ccccc1 (stereo not drawn),-9.13%
9,O=C(C1CCN(c2nnc(N3CCCC3=O)s2)CC1)N1CCN(Cc2ccccc2)CC1,-2.85%
10,Cc1ccc(CNC(=O)c2cc(-c3ccccn3)nc3ccccc23)cc1,-0.406%
11,CCOC(=O)c1[nH]c(C)c(C(=O)NCC2CCCO2)c1C (stereo not drawn),-1.28%
12,C/C=C/C(=O)N1CCN(c2ccc([N+](=O)[O-])cc2)CC1,-4.94%
13,CCN(CC)CCN(C)C1CCC(C)CC1 (stereo not drawn),-1.56%
14,Cc1c(O)ccc2c(=O)c(Oc3ccc(Cl)cc3)c(C(F)(F)F)oc12,-1.42%
15,CCCNC(=O)C1CCCN(c2nn3cc(-c4ccc(C)cc4)nc3s2)C1 (stereo not drawn),-3.6%
16,COCCNc1nc2c(S(=O)(=O)c3c(C)cc(C)cc3C)nnn2c2ccccc12,-3.08%
17,Cc1ccc(N2C(=O)Cn3c2nc2c3c(=O)n(C)c(=O)n2C)cc1C,0.528%
18,COCCNC(=O)Cn1c(C)cc2ccccc2c1=O,-4.23%
19,COc1ccc(C(=O)C2=C(O)C(=O)N(c3ccccn3)C2c2cccnc2)cc1 (stereo not drawn),-2.34%
20,O/N=C1\CCCc2sc3c(c21)/C(=N/O)CCC3,0.708%
21,CCN(CC)C(=O)C(=O)c1c(-c2ccccc2)[nH]c2ccccc12,-0.703%

row,Structure (SMILES),% Inhibition @ 10 uM
1,Cc1ccc(-c2cn3nc(N4CCC(C(=O)N5CCN(c6ccccn6)CC5)CC4)sc3n2)cc1,9.68%
2,Cc1c(C(=O)N2CCC3(CC2)OCCO3)sc2ncn(CC(=O)N3CC(C)CC(C)C3)c(=O)c12 (stereo not drawn),2.8%
3,CCN1CCCC1CNC(=O)C1CCN(C(=O)c2c(C)nn(-c3ccccc3)c2-n2cccc2)CC1 (stereo not drawn),4.95%
4,Cc1ccc(F)cc1NC(=O)Cn1nc(C(F)(F)F)cc1C,-1.38%
5,c1ccc2c(c1)OCCOCCOCCOCCOc1ccccc1OCCOCCOCCO2,-3.97%
6,CCCCCCn1c(SCC)nc2c1c(=O)[nH]c(=O)n2C,4.11%
7,Cc1nc2c(c(C)nn2C)c(C)c1CCC(=O)NCCC(C)C,-10%
8,CCC1=NN2C(=N)/C(=C\c3cccn3-c3ccc(OC)c(Cl)c3)C(=O)N=C2S1,-1.54%
9,Cc1onc(-c2c(Cl)cccc2Cl)c1C(=O)N1CCOCC1,8.19%
10,O=C(CSCc1cccc(Br)c1)Nc1ccc2c(c1)OCCO2,1.42%
11,CC(C)(O)C1C(N2CCOCC2)C(C)(C)S1(=O)=O (stereo not drawn),-2.51%
12,CCOc1ccc(S(=O)(=O)N2CCSC2c2ccc(OC)c(OC)c2)cc1 (stereo not drawn),25.4%
13,CC(C)CCNc1cnn(C23CC4CC(CC(C4)C2)C3)c(=O)c1Cl,0.0579%
14,CCOC(=O)N1CCN(C(=O)c2cnn3ccccc23)CC1,-2.92%
15,Cc1cc(C)cc(Oc2nc3ccccn3c(=O)c2/C=C(\C#N)C(=O)NCc2ccccc2)c1,-3.23%
16,COC(=O)C1=C(C)NC(=O)NC1c1ccc(Cl)c(Cl)c1 (stereo not drawn),-0.294%
17,CN(C1CCCCC1)C1CCN(Cc2ccccc2)CC1,-1.15%
18,Cc1ccc(N2C(N)=C(C#N)C(c3ccc4c(c3)OCO4)C3=C2CC(C)(C)CC3=O)cc1 (stereo not drawn),-0.305%
19,CC1=C(C)CC(C(=O)c2ccccc2)C(C(=O)O)C1 (stereo not drawn),4.22%
20,C=CCNC(=O)c1ccccc1NS(=O)(=O)c1ccc(C)cc1,0.727%
21,Cc1oc(-c2ccc(Cl)cc2)nc1CN1CCC(C(=O)NCc2ccco2)CC1,-1.05%
